Reference: patent US20180169183A1 (KAHR MEDICAL, published 2018)

Biological target: T1, TRAIL receptor DR5 on Jurkat cells (human, UniProt O14763 56-440)
T1 construct: whole, on cells; also called DR5 receptor; TRAIL receptors
Assay: flow cytometry at 4 C, loss of anti-DR5 staining on Jurkat cells

binding result: binds
B1: Fn14-TRAIL Fusion Protein (other)
chain: [left out - about 60 residues]GPQRVAAHITGTRGRSNTLSSPNSKNEKALGRKINSWESSRSGHSFLSNLHLRNGELVIHEKGFYYIYSQTYFRFQEEIKENTKNDKQMVQYIYKYTSYPDPILLMKSARNSCWSKDAEYGLYSIYQGGIFELKENDRIFVSVTNEHLIDMDHEASFFGAFLVG
notes: also called FT
